The record followed here is PMC6919601, “Identification of Plasmodium dipeptidyl aminopeptidase allosteric inhibitors by high throughput screening” (PLoS ONE, 2019).

Out of some 110,000 compounds screened, about 230 (0.21%) showed an effect of 50% or more. This is one part of the list.
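Also: 30 min substrate incubation versus DMSO and 10 µM JCP410 controls.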

The assay deals with DPAP1 (Plasmodium falciparum, UniProt Q8IIJ9). The experiment in a line: primary screen, percent inhibition; read by cleavage of a fluorogenic dipeptide substrate; higher = more effect of the substance. Further details: species or system P. falciparum D10 trophozoite lysates; single well.
DPAP1, sequence (Q8IIJ9 whole entry, looked up): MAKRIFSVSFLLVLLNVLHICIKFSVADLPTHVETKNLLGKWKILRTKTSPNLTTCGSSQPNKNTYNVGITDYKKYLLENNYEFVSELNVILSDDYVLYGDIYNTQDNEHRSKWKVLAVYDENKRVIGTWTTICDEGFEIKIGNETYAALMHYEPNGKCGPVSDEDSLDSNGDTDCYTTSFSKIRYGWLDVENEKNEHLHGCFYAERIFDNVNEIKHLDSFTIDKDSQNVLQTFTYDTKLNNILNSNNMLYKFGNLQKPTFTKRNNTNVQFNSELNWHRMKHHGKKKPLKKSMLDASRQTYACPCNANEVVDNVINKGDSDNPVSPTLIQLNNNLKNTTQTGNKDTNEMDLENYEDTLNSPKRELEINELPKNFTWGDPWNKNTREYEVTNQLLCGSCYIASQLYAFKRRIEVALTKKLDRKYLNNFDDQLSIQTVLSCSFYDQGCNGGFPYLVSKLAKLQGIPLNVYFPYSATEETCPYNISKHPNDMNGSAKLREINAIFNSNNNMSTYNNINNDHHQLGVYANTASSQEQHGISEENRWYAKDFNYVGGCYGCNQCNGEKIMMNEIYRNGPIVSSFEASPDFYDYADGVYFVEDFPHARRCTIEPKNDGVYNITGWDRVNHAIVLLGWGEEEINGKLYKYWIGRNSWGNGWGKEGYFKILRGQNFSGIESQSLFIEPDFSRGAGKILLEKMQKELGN
Consider `Cc1ccccc1CCNCc1c(C(=O)O)n(C)c2ccccc12`, for which the “% Inhibition @ 10 uM” value is reported as -1.6%. Take `O=C(NCCN1CCOCC1)c1ccc2c(c1)ncn2C1CCCC1`: the “% Inhibition @ 10 uM” value came to 2.05%. Regarding `O=C(NCc1cccnc1)c1ccc(CSc2nc3ccncc3n2Cc2cccc(F)c2)cc1`, the “% Inhibition @ 10 uM” value came to 2.65%.

For `Cc1nnc2c3ccccc3nc(N3CCN(C(=O)c4ccco4)CC3)n12`, the “% Inhibition @ 10 uM” value came out at 3.5%. With `Cc1nc2ccc(S(=O)(=O)NCC(=O)N3CCCC(C)C3)cc2s1` (centres unmarked) the figure was 2.57%; with `CCN(CC)CCCCN1c2ccccc2Sc2ccccc21`, -4.43%; with `COc1ccc(-c2cn3c(C)c(C(=O)Nc4cccc(C)n4)sc3n2)cc1`, -7.53%. Take `O=C(Nc1cccnc1Cl)C1CCN(c2nc3ccccc3n2Cc2cccc(F)c2)CC1`: the “% Inhibition @ 10 uM” value came to 0.0882%.

In the case of `Fc1ccc(CN2CCCCC2c2cccnc2)cc1F` (centres unmarked), the “% Inhibition @ 10 uM” value was -1.5%. For the molecule `COc1ccc(C(=O)NCc2nnc(SCC(=O)Nc3nnc(C)s3)o2)cc1`, the “% Inhibition @ 10 uM” value is 84%. As to `CCn1c(C(=O)O)c(CNCCC(C)C)c2ccccc21`, the “% Inhibition @ 10 uM” value was found to be 5.09%. Then `CNS(=O)(=O)c1ccc(N/C=C2/C(=O)NC(=O)N(c3ccccc3)C2=O)cc1`, with 0.751%; and `C=C(C)[C@@H]1CC=C(CNc2ccc3c(c2)OCO3)CC1`, with 19.1%; and `CSc1nn(-c2cc(Cl)nc(-c3ccccc3)n2)c(N)c1C#N`, with -0.994%. With `O=C(NCCCc1ccccc1)c1ccc(CS(=O)c2cccc(Cl)c2)o1` (centres unmarked) the figure was 2.03%; with `NS(=O)(=O)c1ccc(CCNc2ncnc3c2c(-c2ccccc2)cn3-c2ccccc2)cc1`, 2.72%. Regarding `CC(C)(C)C(/C=C/c1ccc(Cl)cc1Cl)NC1=NC(=S)N(c2cccc(C(F)(F)F)c2)C1(C)C` (centres unmarked), the “% Inhibition @ 10 uM” value is -1.42%. With `O=S(=O)(c1ccc(F)cc1)N1CCSC1c1ccc2c3c(cccc13)CC2` (centres unmarked) the figure was -7.18%; with `CC1(C)Cc2nc(NCCO)c(C#N)cc2CO1`, 2.67%. Then `O=S(=O)(Cc1ccccc1)N1CCN(c2cccc(Cl)c2)CC1`, with 3.82%; and `CC(C)OCCCNC(=O)c1ccc(CSCc2cccc(Cl)c2)o1`, with -6.4%; and `COc1cc(C2C(=O)N(C3CCCCC3)CC(=O)N2Cc2ccc(F)cc2)ccc1OC(C)C` (centres unmarked), with 4.47%. With `Cc1ccccc1OCC(=O)N(Cc1ccccc1F)C1CCS(=O)(=O)C1` (centres unmarked) the figure was -3.12%; with `COc1ccc(CCNC(=O)Cn2nnc3sc4c(c3c2=O)CCC(C)C4)cc1OC` (centres unmarked), 0.561%. For `CCSc1ncc(Cl)c(C(=O)N(Cc2ccccc2)c2ccccn2)n1`, the “% Inhibition @ 10 uM” value is given as 2.19%. Then `COc1cccc(/C=C/C2=NN(c3cccc(F)c3)C(c3cccc(OC)c3OC)C2)c1OC` (centres unmarked), with -3.65%; and `COc1ccc(O)c(C2CC(c3c(O)cc(C)oc3=O)=NCCS2)c1` (centres unmarked), with -1.8%; and `COCCNc1nc2ccc(C(=O)c3ccccc3)cc2n2cnnc12`, with 4.4%. In the case of `Cc1sc(N)c(C(=O)NCc2cccnc2)c1-c1ccccc1`, the “% Inhibition @ 10 uM” value came out at 2.4%. Then `CCCCc1nc(S(=O)(=O)c2ccccc2)c(N2CCOCC2)o1`, with -4.03%; and `COc1ccc(OC)c(CC2(NC(=O)c3ccccc3Cl)N=C3C(C)=CC=CN3C2=O)c1` (centres unmarked), with -4.15%. With `N=C1S/C(=C\c2ccco2)C(=O)N1c1ccc2c(c1)OCO2`, the “% Inhibition @ 10 uM” value is -5.91%. In the case of `O=C1O[C@@H]2C[C@H]3C[C@@H]2[C@@H]1[C@H]3C(=O)N1CCC(C(O)(c2ccccc2)c2ccccc2)CC1`, the “% Inhibition @ 10 uM” value stood at 0.347%. Take `CCCCCn1c(N2CCCC2)nc2c1c(=O)n(C)c(=O)n2C`: the “% Inhibition @ 10 uM” value is 0.425%. Then `CC1=C(C(=O)Nc2cccc(C)n2)C(c2cccc(Cl)c2)C2=C(O)CCCC2=N1` (centres unmarked), with -2.46%; and `N#Cc1c(S)nc2c(c1-c1ccncc1)CCCC2`, with 30.8%.

As to `CCCNC(=O)C(Cc1ccccc1)NS(=O)(=O)c1cccc2nsnc12` (centres unmarked), the “% Inhibition @ 10 uM” value came to 2%. Then `CN1CCc2c(sc3c2C(=O)NC(c2cc(Br)ccc2O)N3)C1` (centres unmarked), with 1.31%. With `COc1ccc(/C=N/n2c(C)nnc2C)c(OC)c1OC` the figure was 4.67%; with `O=C(NCCc1nc2ccccc2n1CCC1CCCCC1)c1ccco1`, -4.82%; with `COc1ccc(-n2nnnc2C2CCN(S(=O)(=O)c3ccc(S(C)(=O)=O)cc3)CC2)cc1`, 3.27%.

In the case of `N=c1c2c(n(Cc3ccc(Cl)cc3)c3c1CCC3)CCC2`, the “% Inhibition @ 10 uM” value came to 5.59%. Then `O=C(C1CCCN(S(=O)(=O)N2CCC3(CC2)OCCO3)C1)N1CCN(C2CCCCC2)CC1` (centres unmarked), with 1.17%; and `O=C(/C=C/c1cn(CC(O)CN2CCOCC2)c2ccccc12)c1cccs1` (centres unmarked), with -5.36%. With `CC(C)(C)C1CCC(OC(=O)CCC(=O)Nc2ccc(Cl)cc2Cl)CC1` (centres unmarked) the figure was -1.76%. In the case of `Cc1ccc(C)c(CN2CCN(c3ccccc3Cl)CC2)c1`, the “% Inhibition @ 10 uM” value is -9.51%. With `Cc1cccc(NC(=O)c2ccc([N+](=O)[O-])cc2C(=O)O)c1` the figure was -1.45%; with `OCC1CCCN(C2CCN(Cc3ccccc3)CC2)C1` (centres unmarked), 4.74%; with `CCc1ccc(CNC(=O)CSCc2ccc(F)cc2)cc1`, 2.18%. Then `CCOc1cc(-c2noc(N)c2C(=O)OC)cc(OCC)c1OCC`, with 3.96%.
